Test results from the supplement of paper PMC9446081.
About 220 (0.56%) of roughly 39,000 compounds showed activity. The list shows a part of the results.
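Also: static incubation at 37 °C against the wild-type strain, values averaged over two biological replicates.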

These molecules were tested on Escherichia coli K-12 BW25113 (assay: relative growth (OD600 normalised to plate interquartile mean) (fraction); higher = less growth inhibition, active = 0.2 or less). Conditions: 50 µM; LB; incubation time: overnight (16-24 h).
`O=C([O-])Cc1ccccc1Nc1c(Cl)cccc1Cl.[Na+]` was tested, and the relative growth was inactive: 1.13.
`O=C(/C=C/c1ccc(O)c(O)c1)O[C@H]([C@H](OC(=O)/C=C/c1ccc(O)c(O)c1)[C@H](OC(=O)/C=C/c1ccc(O)c(O)c1)C(=O)O)[C@@H](OC(=O)/C=C/c1ccc(O)c(O)c1)C(=O)O` was tested, and the relative growth was inactive: 0.975.
With `COCC(=O)N(C)C[C@@H]1Oc2cc(C#C[C@H](C)O)ccc2S(=O)(=O)N([C@H](C)CO)C[C@H]1C` the relative growth was inactive: 1.02.
For `Cc1noc(C)c1S(=O)(=O)N(C)C[C@H]1Oc2ccc(NC(=O)Cc3cn(C)c4ccccc34)cc2CC(=O)N([C@@H](C)CO)C[C@H]1C`, the relative growth was inactive: 1.01.
With `COc1ccc(CCNC(=O)[C@@]2(Sc3ccc(C)cc3)CC(=O)N(C(C)C)[C@@H]2c2ccc(CO)cc2)cc1` the relative growth was inactive: 1.01.
`C[C@H](CO)N1C[C@H](C)[C@H](CN(C)C(=O)NC2CCCCC2)OCCCC[C@H](C)Oc2ccc(NC(=O)Cc3ccccc3)cc2C1=O` was tested, and the relative growth was inactive: 0.975.
With `C[C@H](CO)N1C[C@H](C)[C@H](CN(C)Cc2ccccc2)Oc2c(NC(=O)CCCCCC(=O)Nc3ccccc3N)cccc2C1=O` the relative growth was inactive: 1.02.
In the case of `C[C@@H]1CCCCO[C@H](CN(C)C(=O)Cc2ccccc2)[C@@H](C)CN([C@@H](C)CO)C(=O)c2cc(NS(=O)(=O)c3cccs3)ccc2O1`, the relative growth is reported as inactive: 0.997.
For `COc1cc2c(cc1-c1coc3c4c(c(OC)cc3c1=O)OC(C)(C)CC4)OCO2`, the relative growth was inactive: 1.09.
For `C[C@@H]1CCCCO[C@@H](CN(C)Cc2ccccc2)[C@@H](C)CN([C@H](C)CO)C(=O)c2cc(NS(=O)(=O)c3cccs3)ccc2O1`, the relative growth was inactive: 1.01.
`CCCCCCO[C@H](C)c1c(c/2[nH]c1/C=C/1\N=C(/C=C/3\NC4=C(CC(=O)C4=C3C)C3=N/C(=C2)[C@@H](C)[C@@H]3CCC(=O)O)C(=C1C)CC)C` was tested, and the relative growth was inactive: 1.25.
In the case of `COc1ccc(S(=O)(=O)Nc2ccc3c(c2)C(=O)N([C@H](C)CO)C[C@H](C)[C@H](CN(C)Cc2ccc(C(=O)Nc4ccccc4N)cc2)OCCCC[C@@H](C)O3)cc1`, the relative growth is reported as inactive: 1.03.
For `C[C@@H]1CN([C@H](C)CO)C(=O)Cc2cc(NC(=O)Cn3cnnn3)ccc2O[C@@H]1CN(C)CC1CC1`, the relative growth was inactive: 0.972.
In the case of `COc1ccc(-c2cc(=O)c3c(O)cc(O[C@@H]4O[C@@H](CO[C@@H]5O[C@H](C)[C@@H](O)[C@H](O)[C@H]5O)[C@H](O)[C@@H](O)[C@H]4O)cc3o2)cc1O`, the relative growth is reported as inactive: 1.01.
In the case of `C[C@H](CO)N1C[C@H](C)[C@@H](CN(C)S(=O)(=O)c2ccc(Cl)cc2)OCCCC[C@H](C)Oc2ccc(NC(=O)Nc3ccc4c(c3)OCO4)cc2C1=O`, the relative growth is reported as inactive: 1.03.
In the case of `C[C@@H]1CCCCO[C@H](CN(C)Cc2ccc3c(c2)OCO3)[C@@H](C)CN([C@H](C)CO)C(=O)c2cc(NS(=O)(=O)c3ccc(F)cc3)ccc2O1`, the relative growth is reported as inactive: 0.988.
`CCOC(=O)[C@@H](C#N)C(=O)C1CC1` was tested, and the relative growth was inactive: 1.01.
With `C[C@@H]1CN([C@H](C)CO)C(=O)c2cc(NC(=O)CCCN(C)C)ccc2O[C@H]1CN(C)C(=O)Nc1ccc(F)cc1` the relative growth was inactive: 1.03.
With `C[C@H](CO)N1C[C@H](C)[C@H](CN(C)C(=O)Nc2cccc3ccccc23)OCCCC[C@H](C)Oc2ccc(NS(=O)(=O)c3ccc(F)cc3)cc2C1=O` the relative growth was inactive: 0.999.
For `Cc1noc(C)c1NC(=O)N[C@H]1C=C[C@@H](CC(=O)NCCCN(C)C)O[C@@H]1CO`, the relative growth was inactive: 1.02.
For `C[C@H](CO)N1C[C@H](C)[C@H](CN(C)Cc2ccc(C(=O)O)cc2)OCCCC[C@H](C)Oc2ccc(NC(=O)Nc3ccc(C(F)(F)F)cc3)cc2C1=O`, the relative growth was inactive: 0.874.
With `Cc1noc(C)c1S(=O)(=O)N(C)C[C@@H]1OCCCC[C@H](C)Oc2ccc(NC(=O)Nc3ccccc3)cc2C(=O)N([C@H](C)CO)C[C@H]1C` the relative growth was inactive: 1.
In the case of `CCOC(=O)N(C)C[C@H]1OCc2cnnn2CCCC(=O)N([C@@H](C)CO)C[C@H]1C`, the relative growth is reported as inactive: 1.01.
For `CC(C)NC(=O)Nc1cccc2c1O[C@H](CN(C)Cc1ccc(Oc3ccccc3)cc1)[C@@H](C)CN([C@@H](C)CO)C2=O`, the relative growth was inactive: 0.944.
In the case of `C[C@@H]1CCCCO[C@@H](CN(C)CC2CCCCC2)[C@@H](C)CN([C@@H](C)CO)C(=O)c2cc(NC(=O)Nc3ccccc3)ccc2O1`, the relative growth is reported as inactive: 1.02.
`C[C@@H]1CCCCO[C@@H](CN(C)C(=O)Nc2cccc3ccccc23)[C@@H](C)CN([C@H](C)CO)C(=O)c2cc(NC(=O)Nc3ccc4c(c3)OCO4)ccc2O1` was tested, and the relative growth was inactive: 1.02.
With `COc1cccc(S(=O)(=O)N2C[C@H](O)COC[C@H]3O[C@H](CC(=O)N4CCN(c5ccccc5)CC4)CC[C@@H]32)c1` the relative growth was inactive: 1.01.
With `Cc1noc(C)c1NC(=O)N(C)C[C@H]1Oc2ccc(NC(=O)Nc3cccc4ccccc34)cc2C(=O)N([C@@H](C)CO)C[C@H]1C` the relative growth was inactive: 0.991.
For `Cc1noc(C)c1NC(=O)Nc1ccc2c(c1)C(=O)N([C@H](C)CO)C[C@H](C)[C@H](CN(C)Cc1ccc3c(c1)OCO3)OCCCC[C@H](C)O2`, the relative growth was inactive: 0.99.
For `Cc1noc(C)c1S(=O)(=O)N(C)C[C@@H]1Oc2ccc(NC(=O)CCC(F)(F)F)cc2CC(=O)N([C@H](C)CO)C[C@@H]1C`, the relative growth was inactive: 1.02.
For `C[C@H]1CCCCO[C@H](CN(C)C(=O)Nc2ccccc2)[C@@H](C)CN([C@@H](C)CO)C(=O)c2cc(NC(=O)C3CCCCC3)ccc2O1`, the relative growth was inactive: 0.986.
In the case of `CN1C(=O)c2cc(NS(=O)(=O)c3ccc(F)cc3)ccc2OC[C@H]2O[C@@H](CC(=O)NCC(F)(F)F)CC[C@H]21`, the relative growth is reported as inactive: 1.01.
`COc1ccc2c3c([nH]c2c1)[C@H](CO)N(C[C@]13CCN(CC1)CC1CCOCC1)S(=O)(=O)c1cn(cn1)C` was tested, and the relative growth was inactive: 1.01.
`C[C@@H]1CN([C@H](C)CO)C(=O)c2cc(NS(=O)(=O)c3cn(C)cn3)ccc2O[C@@H]1CN(C)Cc1ccc2c(c1)OCO2` was tested, and the relative growth was inactive: 1.
`COc1ccc(S(=O)(=O)Nc2ccc3c(c2)C(=O)N([C@@H](C)CO)C[C@@H](C)[C@@H](CN(C)C(=O)NC2CCCCC2)OCCCC[C@@H](C)O3)cc1` was tested, and the relative growth was inactive: 1.01.
`COc1ccc(CN(C)C[C@@H]2OCCCC[C@@H](C)Oc3ccc(NS(=O)(=O)c4ccccc4)cc3C(=O)N([C@@H](C)CO)C[C@@H]2C)cc1` was tested, and the relative growth was inactive: 1.01.
With `C[C@@H]1CCCCO[C@@H](CN(C)C(=O)Nc2ccc(F)cc2)[C@@H](C)CN([C@H](C)CO)C(=O)c2cc(NC(=O)CCCN(C)C)ccc2O1` the relative growth was inactive: 0.997.
In the case of `Cc1ccc(S(=O)(=O)N(C)C[C@H]2Oc3ccc(NC(=O)Cn4cnnn4)cc3CC(=O)N([C@H](C)CO)C[C@H]2C)cc1`, the relative growth is reported as inactive: 0.994.
In the case of `COc1ccc(S(=O)(=O)Nc2ccc3c(c2)C(=O)N([C@H](C)CO)C[C@@H](C)[C@H](CN(C)C(=O)Nc2ccc4c(c2)OCO4)OCCCC[C@@H](C)O3)cc1`, the relative growth is reported as inactive: 0.997.
For `NC(=O)NC(=O)C[C@H]1Nc2ccccc2NC1=O`, the relative growth was inactive: 0.971.
With `C[C@H]1CN([C@@H](C)CO)C(=O)c2cccc(NC(=O)NC3CCCCC3)c2O[C@H]1CN(C)Cc1ccc(-c2ccccc2)cc1` the relative growth was inactive: 0.982.
For `CC(=O)Nc1ccc(OC(C)=O)cc1`, the relative growth was inactive: 0.889.
For `C[C@H]1CN([C@@H](C)CO)C(=O)Cc2cc(NC(=O)C3CCCCC3)ccc2O[C@H]1CN(C)C(=O)Nc1cccc2ccccc12`, the relative growth was inactive: 0.998.
For `CCC1(C)CC(=O)NC1=O` (stereo unspecified), the relative growth was inactive: 0.995.
In the case of `OCCN1CCN(c2ncnc3c2ncn3[C@H]2CN(Cc3ccc(Cl)cc3)C[C@@H](CO)O2)CC1`, the relative growth is reported as inactive: 1.02.
In the case of `C[C@@H]1CCCCO[C@@H](CN(C)Cc2ccc(C(F)(F)F)cc2)[C@H](C)CN([C@H](C)CO)C(=O)c2cc(NC(=O)Cc3ccccc3)ccc2O1`, the relative growth is reported as inactive: 1.09.
`CC(C)NC(=O)Nc1ccc2c(c1)CC(=O)N([C@@H](C)CO)C[C@H](C)[C@H](CN(C)Cc1ccc(Oc3ccccc3)cc1)O2` was tested, and the relative growth was inactive: 0.98.
In the case of `C[C@@H]1CN([C@H](C)CO)C(=O)c2cccc(NC(=O)c3ccc(-c4nccs4)cc3)c2O[C@@H]1CN(C)Cc1ccc(C(F)(F)F)cc1`, the relative growth is reported as inactive: 0.996.
For `COc1ccc(S(=O)(=O)N(C)C[C@@H]2Oc3ncc(C#CC(C)(C)O)cc3C(=O)N([C@H](C)CO)C[C@@H]2C)cc1`, the relative growth was inactive: 0.988.
With `CCCNC(=O)c1cc2c(c(-c3cccc(-c4cccc(OC)c4)c3)n1)[C@H](CCO)N([S@@](=O)C(C)(C)C)C2` the relative growth was inactive: 0.998.
With `C[C@@H]1CN([C@@H](C)CO)C(=O)Cc2cc(NC(=O)Nc3ccc(F)cc3)ccc2O[C@@H]1CN(C)S(C)(=O)=O` the relative growth was inactive: 1.02.
For `N[C@@H](Cn1ccc(=O)n(Cc2ccccc2C(=O)O)c1=O)C(=O)O`, the relative growth was inactive: 1.01.
In the case of `COc1ccc(S(=O)(=O)Nc2cccc3c2O[C@H](CN(C)S(C)(=O)=O)[C@H](C)CN([C@@H](C)CO)C3=O)cc1`, the relative growth is reported as inactive: 0.969.
For `CN(CCCCCCCCCCN(C)C(=O)Oc1cccc([N+](C)(C)C)c1)C(=O)Oc1cccc([N+](C)(C)C)c1`, the relative growth was inactive: 0.953.
In the case of `C[C@H](CO)N1C[C@H](C)[C@@H](CN(C)Cc2ccc(C(F)(F)F)cc2)Oc2c(NS(C)(=O)=O)cccc2C1=O`, the relative growth is reported as inactive: 1.01.
In the case of `CC(C)CC#Cc1ccc2c(c1)O[C@@H](CN(C)Cc1cncnc1)[C@H](C)CN([C@H](C)CO)S2(=O)=O`, the relative growth is reported as inactive: 1.
